Several values for one entry are separate records, joined by “and”; a condition that tells them apart may be missing. Identical values can stand only once. The whole screen tested about 350,000 compounds, of which about 260 (0.074%) were called active. This list was built around the results that the source calls inconclusive (neither active nor inactive); the mix of calls is not that of the screen. The call rests on the fitted dose curve; in most records, active means well fitted inhibition curve with a large enough effect; inconclusive means small, poorly fitted or top-dose-only effect; inactive means no such curve, though single readings can be large or run the other way. Potencies of inconclusive entries are doubtful fits and often do not repeat.
Biological target: Ferritin light chain (Equus caballus) (UniProt P02791)
Sequence of UniProt P02791 (P02791 whole entry, looked up): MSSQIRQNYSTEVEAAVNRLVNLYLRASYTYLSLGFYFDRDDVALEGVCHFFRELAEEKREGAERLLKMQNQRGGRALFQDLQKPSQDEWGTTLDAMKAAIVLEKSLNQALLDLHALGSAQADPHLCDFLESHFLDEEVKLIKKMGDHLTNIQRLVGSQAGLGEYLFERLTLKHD
Experiment: qHTS Assay for Identification of Novel General Anesthetics; further: nearly all actives have a fitted effect of over 20% in size
Conditions: apoferritin/1-aminoanthracene competitive binding, fluorescence; series mostly up to 77.5 µM
Procedure, shortened: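 Apoferritin-based anesthetic binding model; compound displacement of fluorescent 1-AMA measured as endpoint fluorescence after 10 minutes at room temperature, scaled to free-ligand and complex controls.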
Potency means the concentration at half of the fitted maximal effect; tags describe the fitted curve by direction and shape.

Potency, inconclusive:
CCCc1cc(=O)[nH]c(SCc2cc(C(=O)OC)c(C)o2)n1 44.7 µM [inhibitor, partial curve], N#Cc1c(Sc2ncc(C(F)(F)F)cc2Cl)nsc1C/C=N\OCc1c(F)cccc1Cl 15.8 µM [inhibitor, partial curve], C=C(C)COc1ccc(-c2nc(N)nc(C(F)(F)F)c2-c2ccc(OC)cc2)c(O)c1 44.7 µM [inhibitor, partial curve], CCc1ccc(NC(=O)c2c(C(=O)Nc3ccccc3)sc3nc(C)cc(=O)n23)cc1 8.91 µM [inhibitor, partial curve] and 22.4 µM [inhibitor, partial curve], COC(=O)CC(NS(=O)(=O)c1cccs1)c1cccc2ccccc12 (configuration not stated) 31.6 µM [inhibitor, single point], Brc1ccccc1-n1nnc(-c2cccnc2)n1 28.2 µM [inhibitor, partial curve], Cc1ccc(CNc2ncnc3c2cnn3-c2ccc(C)cc2C)cc1 7.94 µM [inhibitor, partial curve], O=C(NNC(=O)c1ccc(SCC2CCCO2)c([N+](=O)[O-])c1)c1ccc(F)cc1 (configuration not stated) 22.4 µM [inhibitor, partial curve], CCC1=Nc2cc(C(=O)NCCCOC(C)C)ccc2Sc2ccccc21 20 µM [inhibitor, partial curve], COc1ccc(-c2cc(OC(=O)c3cccc(C)c3)c3c(C)oc(C)c3c(=O)c2)cc1 14.1 µM [inhibitor, partial curve], CCc1nn2c(=O)cc(COC(=O)C3CCCCC3)nc2s1 35.5 µM [inhibitor, single point], COc1cccc(NC(=O)c2nnn(Cc3ccc(OC)c(Br)c3)c2N)c1 3.55 µM [inhibitor, full curve], Cc1ccc(-c2noc(CCC(=O)N(C)c3ccccc3C)n2)cc1 35.5 µM [inhibitor, single point], O=C(COC(=O)Cc1ccc(Br)cc1)NCC1CCCCC1 31.6 µM [inhibitor, partial curve], CC(=O)Nc1ccc(C(=O)c2ccccc2)cc1 28.2 µM [inhibitor, single point], CC(C)COc1ccc(C(=O)OCCN2CCOCC2)c(O)c1 31.6 µM [inhibitor, single point], CC(C)(C)OC(=O)NNC(=O)C12CC3CC(CC(C3)C1)C2 25.1 µM [inhibitor, partial curve], C/C(=N\NC(=O)c1ccccn1)C12CC3CC(CC(C3)C1)C2 31.6 µM [inhibitor, partial curve], CC(NC(=O)c1ccc(Br)o1)C1CC2CCC1C2 (configuration not stated) 10 µM [inhibitor, partial curve], O=C(Cc1c(F)cccc1Cl)Nc1ccc(S(=O)(=O)N2CCOCC2)cc1 28.2 µM [inhibitor, partial curve], CS(=O)(=O)NCc1nnc(SCc2ccccc2C(F)(F)F)o1 17.8 µM [inhibitor, partial curve], COc1ccc2nc(NC(=O)CSc3nnnn3C3CCCCC3)sc2c1 5.01 µM [inhibitor, full curve, poor fit], Cc1cccc(Cc2c(C)nc3nc(SCC(=O)NCc4ccc(F)cc4)nn3c2C)c1 15.8 µM [inhibitor, partial curve], CC(C)(C)C(=O)Nc1ccc(Sc2ccc([N+](=O)[O-])cc2)cc1 50.1 µM [inhibitor, single point], CCN(CC)CCSc1nnc2c3ccccc3n(Cc3ccccc3)c2n1 10 µM [inhibitor, partial curve], O=C(O)C1C2CCC(C2)C1C(=O)NCc1ccco1 (configuration not stated) 22.4 µM [inhibitor, partial curve], C/C(=N\NC(=O)C1CC1c1ccccc1)c1cccs1 (configuration not stated) 15.8 µM [inhibitor, partial curve], CCOC(=O)c1ccc2[nH]c3c(c2c1)CCCC3 28.2 µM [inhibitor, partial curve, poor fit], O=C(/C=C/c1ccccc1)N1CCN(c2ccc([N+](=O)[O-])c(N3CCOCC3)c2)CC1 31.6 µM [inhibitor, partial curve], Cc1ccc(NC(=O)c2cccs2)cc1NC(=O)c1cccnc1 35.5 µM [inhibitor, single point], CC(=O)N(CC1CCCO1)c1nnc(-c2ccccn2)s1 (configuration not stated) 35.5 µM [inhibitor, partial curve], COc1cccc(NC(=O)C(=O)NCCc2csc3nc(-c4ccccc4C)nn23)c1 4.47 µM [inhibitor, full curve], Clc1ccc(-c2nnc3sc(Cc4cccs4)nn23)c(Cl)c1 31.6 µM [inhibitor, partial curve]

Potency, inactive:
COc1ccc(CNC(=O)C2CCN(S(=O)(=O)c3ccc4nc5c(c(C(=O)O)c4c3)CC(C)CC5)CC2)cc1 (configuration not stated), Cc1nc(Nc2ccccc2)c2nc(-c3ccccc3)n(CCN3CCOCC3)c2n1, COc1cccc(Nc2n[nH]c(=S)s2)c1, COc1ccc(CC(=O)Nc2ccc(C(=O)Nc3nccs3)cc2)cc1OC, Cc1nc2ccc(S(=O)(=O)Nc3ccc(-c4nc5cccnc5s4)cc3)cc2s1, Cc1ccc(CNC(=O)c2ccc3c(c2)nc2n3CCCC2)cc1, CCOC(=O)/C(=C\c1ccc(Cl)cc1)c1nc2sc(C)c(C)c2c(=O)[nH]1, Cc1cc(C)c2c(=O)cc(C(=O)Nc3ccc(S(=O)(=O)Nc4onc(C)c4C)cc3)oc2c1, COc1ccccc1N1CCN(CCN2C(=O)C3CCCCN3C2=O)CC1 (configuration not stated)
